# PubChem BioAssay AID540317 (National Center for Advancing Translational Sciences (NCATS), 2011)
# About 2,200 (0.56%) of roughly 390,000 compounds were called active. Inconclusive means that the source gave no clear call. Such entries were picked first, then a sample of the others. Calls come from the whole dose curve; as a rule, active = well fitted inhibition curve with a large enough effect; inconclusive = small, poorly fitted or top-dose-only effect; inactive = no such curve, though single readings can be large or run the other way. A potency beside an inconclusive call is a rough fit, not a confirmed value.
# Target: Chromobox protein homolog 1 (Homo sapiens) (UniProt P83916)
# Assay: HTS for Inhibitors of HP1-beta Chromodomain Interactions with Methylated Histone Tails; note: nearly all actives have a fitted effect of over 70% in size
# Conditions: AlphaScreen HP1-beta / biotin-H3K9me3 peptide binding; series mostly up to 114 µM; activity change, negative = inhibition: at the top concentration
# In short: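 HP1-beta protein (50 nM final) preincubated 30 min at room temperature with biotinylated H3(1-18)K9me3 peptide (50 nM) in PBS pH 7.4, 0.01% Tween-20, then compound added for 30 min. AlphaScreen streptavidin donor/nickel chelate acceptor beads (10 ug/mL final), 30 min dark, luminescence read.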
# Potency is the fitted concentration of half-maximal effect; tags give direction and shape of the fitted curve.
# Chain of UniProt P83916 (P83916 whole entry, looked up): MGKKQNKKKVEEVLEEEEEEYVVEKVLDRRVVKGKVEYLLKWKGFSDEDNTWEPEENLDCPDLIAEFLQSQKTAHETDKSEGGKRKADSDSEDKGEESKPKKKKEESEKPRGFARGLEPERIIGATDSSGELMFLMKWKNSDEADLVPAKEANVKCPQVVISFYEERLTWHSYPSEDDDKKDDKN
Compound,"activity change, negative = inhibition",Potency
CC1CCc2c(sc(NC(=O)c3cc(-c4cccc(Cl)c4)on3)c2C(N)=O)C1 (stereo unspecified),inactive: 53%,–
COc1ccc(OC)c(CNS(=O)(=O)c2ccc3[nH]c4c(c3c2)CCCCC4)c1,–,"inconclusive: 50.1 µM [inhibitor, partial curve]"
O=C(CN1CCCC1)Nc1ccc(OC(F)(F)F)cc1,–,"inconclusive: 44.7 µM [inhibitor, partial curve]"
O=C1C(Br)=C(c2ccccc2)C(c2ccccc2)=C1c1ccccc1,–,"inconclusive: 10 µM [inhibitor, full curve, poor fit]"
CC(C)N(C(=O)[C@H]1C[C@H](CC(=O)NCc2ccco2)C(=O)N2CCc3c([nH]c4cc(-c5ccco5)ccc34)[C@]12C)C(C)C,–,"inconclusive: 39.8 µM [inhibitor, partial curve]"
CC(C)[C@H]1C=C(C(=O)O)O[C@@H](OCc2ccc(CO)cc2)C1,inactive: 25.2%,–
CCCn1c2ccccc2c2cnn(CC(=O)N3CCN(c4ccccc4F)CC3)c(=O)c21,inactive: 4.04%,–
COC(=O)C1=C(C)NC(C)=C(C(=O)OCC(C)C)C1c1ccccc1[N+](=O)[O-] (stereo unspecified),–,active: 15.8 µM
Cc1ccc(Nc2c(-c3ccc(Cl)cc3)nc3sccn23)c(C)c1,–,"inconclusive: 17.8 µM [inhibitor, full curve]"
CC1CCN(c2ccc(NC(=S)NC(=O)c3ccc(-c4cccc([N+](=O)[O-])c4)o3)cc2)CC1,–,"inconclusive: 10 µM [inhibitor, partial curve, poor fit]"
CC(C)n1c(-c2ccc(N(C)C)cc2)nc2ccccc21,–,"inconclusive: 50.1 µM [inhibitor, partial curve, poor fit]"
O=[N+]([O-])c1ccc(N/N=C/c2ccc[nH]2)cc1,–,"inconclusive: 50.1 µM [inhibitor, partial curve, poor fit]"
Cc1cc(Br)ccc1OCCCCN1CCC(C)CC1,–,"inconclusive: 20 µM [inhibitor, full curve]"
CCN(Cc1ccccc1)c1ccc(/C=N/N2CCOCC2)cc1,–,"inconclusive: 31.6 µM [inhibitor, partial curve]"
CCOc1ccccc1CN(CCc1ccc2c(c1)OCO2)Cc1ccccn1,–,"inconclusive: 10 µM [inhibitor, partial curve, poor fit]"
CC(C)Oc1ccc(CNS(=O)(=O)c2ccc3c(c2)C(C)(C)C(=O)N3C)cc1,inactive: 27.5%,–
CC(C)(C)c1ccc(-c2nc(C#N)c(N3CCC(C(N)=O)CC3)o2)cc1,–,"inconclusive: 56.2 µM [inhibitor, single point]"
CCOc1cc(CNc2ccc(N3CCCCC3)cc2)cc(Br)c1OCC(=O)NC(C)(C)C,–,"inconclusive: 3.55 µM [inhibitor, full curve, poor fit]"
COc1ccc(CN2CCN(Cc3ccc(C(F)(F)F)cc3)CC2)cc1,–,"inconclusive: 25.1 µM [inhibitor, partial curve, poor fit]"
Cc1cc(C(=O)OCC(=O)N2c3ccccc3NC(=O)C2(C)C)c(C)n1-c1ccccc1,–,"inconclusive: 50.1 µM [inhibitor, partial curve]"
COc1ccccc1N/C(=N/S(=O)(=O)c1ccc(C)cc1)c1ccc(Cl)cc1,inactive: 17.3%,–

Compound,"activity change, negative = inhibition",Potency
CCS(=O)(=O)N1CC(=O)N(c2ccc(Cl)cc2C)C(C)(C(=O)NC2CCCCC2)C1 (stereo unspecified),inactive: 52.6%,–
Cc1cc(C)c(OCC(=O)N(Cc2ccc(N(C)C)cc2)CC2CCCO2)c(C)c1 (stereo unspecified),–,"inconclusive: 20 µM [inhibitor, full curve]"
CC(C)(C)NC(=O)C(c1c[nH]c2ccccc12)N(C(=O)Cn1nnc(-c2ccc(F)cc2)n1)c1cccc(O)c1 (stereo unspecified),–,"inconclusive: 25.1 µM [inhibitor, partial curve, poor fit]"
Cc1ccc(NC(=O)CCC(=O)NNS(=O)(=O)c2ccccc2)cc1C,–,"inconclusive: 39.8 µM [inhibitor, single point]"
COc1ccc(C(=O)N/C(=C\c2cn(C)c3ccccc23)C(=O)NCCN2CCOCC2)cc1OC,inactive: 42.8%,–
CCn1c2ccccc2c2cc(CN3CCN(Cc4ccc(Cl)cc4)CC3)ccc21,–,"inconclusive: 11.2 µM [inhibitor, full curve, poor fit]"
O=C(CN1C(=O)N/C(=C\c2ccccc2OCc2ccc(C(=O)O)cc2)C1=O)Nc1ccc(F)cc1,–,"inconclusive: 89.1 µM [inhibitor, partial curve, poor fit]"
CCc1nc(Nc2ccc(F)c(Cl)c2)c2c3c(sc2n1)CCCC3,inactive: 75.8%,–
C=CCn1c(N)c(C(=O)N2CCOCC2)sc1=S,inactive: -26.9%,–
C1CC1Cc1noc(CN2CCN(CC3CC3)CC2)n1,–,"inconclusive: 89.1 µM [inhibitor, single point]"
COc1ccc(CNC(=O)C[C@H]2C[C@H](C(=O)N(C(C)C)C(C)C)[C@@]3(C)c4[nH]c5cc(-c6ccco6)ccc5c4CCN3C2=O)cc1OC,–,"inconclusive: 28.2 µM [inhibitor, partial curve, poor fit]"
S=C(Nc1cccc(Cl)c1)Nc1cccc2cnccc12,–,"inconclusive: 15.8 µM [inhibitor, full curve]"
CS(=O)(=O)Nc1ccc(N2CCN(c3ccc(C(F)(F)F)cn3)CC2)nc1,inactive: 38%,–
Cc1sc2ncnc(Sc3ccccc3C(=O)Nc3ccc(Br)cc3)c2c1C,–,"inconclusive: 35.5 µM [inhibitor, single point]"
Cc1ccc(/C=C2\SC(=S)N(CC3CCCO3)C2=O)o1 (stereo unspecified),–,active: 31.6 µM
COc1ccc(CN2CCC(=O)N(CCO)CC2)cc1OC,inactive: 37.5%,–
C(=N\N1CCN(C2c3ccccc3-c3ccccc32)CC1)/c1cccnc1,–,"inconclusive: 50.1 µM [inhibitor, partial curve]"
CCn1c(C)cc(/C=C2\NC(=O)N(Cc3ccccc3)C2=O)c1C,inactive: 7.08%,–
O=C(O)CC/C(=N\Nc1ccccc1[N+](=O)[O-])c1cccs1,–,"inconclusive: 31.6 µM [inhibitor, partial curve]"
CCCS(=O)(=O)N1CCN(Cc2ccc3c(c2)c2ccccc2n3CC)CC1,–,"inconclusive: 15.8 µM [inhibitor, full curve]"
